Reference: publication PMC4336329 (PLoS ONE, 2015)
In all, about 310,000 compounds went through this assay and about 14,000 (4.5%) showed an effect of 50% or more. Effects have a minus sign here. The list shows a part of the results.

Target: human ether-à-go-go-related gene (hERG) potassium channel (human, UniProt Q12809)
Assay: primary screen, population patch clamp on CHO cells stably expressing hERG
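Also: peak tail current of the secondary pulse compared with the same well before compound.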

Chain of human ether-à-go-go-related gene (hERG) potassium channel (Q12809 whole entry, looked up): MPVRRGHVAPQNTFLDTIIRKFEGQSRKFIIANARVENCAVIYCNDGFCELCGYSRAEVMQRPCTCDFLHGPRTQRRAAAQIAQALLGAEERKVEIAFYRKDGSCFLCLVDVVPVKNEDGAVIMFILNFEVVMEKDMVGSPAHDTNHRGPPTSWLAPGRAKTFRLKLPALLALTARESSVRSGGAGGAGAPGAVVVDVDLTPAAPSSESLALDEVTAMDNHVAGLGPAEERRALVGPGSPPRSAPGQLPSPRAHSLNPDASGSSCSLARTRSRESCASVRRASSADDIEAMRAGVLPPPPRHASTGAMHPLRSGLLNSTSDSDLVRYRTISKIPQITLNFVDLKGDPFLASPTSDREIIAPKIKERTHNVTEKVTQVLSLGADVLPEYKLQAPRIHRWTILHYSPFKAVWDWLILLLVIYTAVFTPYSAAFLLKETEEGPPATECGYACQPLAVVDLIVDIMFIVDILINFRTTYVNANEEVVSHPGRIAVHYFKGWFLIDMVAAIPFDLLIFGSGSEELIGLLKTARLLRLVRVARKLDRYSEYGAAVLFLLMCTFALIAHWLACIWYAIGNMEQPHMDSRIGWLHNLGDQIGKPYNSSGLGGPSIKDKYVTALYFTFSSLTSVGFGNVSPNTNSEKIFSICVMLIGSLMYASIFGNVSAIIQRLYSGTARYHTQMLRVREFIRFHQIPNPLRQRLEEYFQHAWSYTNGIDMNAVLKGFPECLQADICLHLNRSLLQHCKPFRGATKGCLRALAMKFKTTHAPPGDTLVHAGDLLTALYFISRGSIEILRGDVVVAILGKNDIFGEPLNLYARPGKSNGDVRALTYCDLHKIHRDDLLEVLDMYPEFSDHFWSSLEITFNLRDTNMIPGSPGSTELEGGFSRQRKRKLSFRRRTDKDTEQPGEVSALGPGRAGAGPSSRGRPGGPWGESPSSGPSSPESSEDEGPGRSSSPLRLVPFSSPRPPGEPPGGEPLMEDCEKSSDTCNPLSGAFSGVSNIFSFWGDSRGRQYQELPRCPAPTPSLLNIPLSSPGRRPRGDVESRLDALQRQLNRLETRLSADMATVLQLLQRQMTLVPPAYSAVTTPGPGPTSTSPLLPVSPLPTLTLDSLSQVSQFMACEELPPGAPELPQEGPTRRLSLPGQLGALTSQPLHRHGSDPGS

| SMILES | hERG current change (%, negative = inhibition) at 10uM |
| --- | --- |
| Oc1c(C=C2N=c3ccccc3=N2)sc(=S)n1C1CCCC1 | 2.45% |
| CC(OC(=O)Cn1cnc2c1c(=O)n(C)c(=O)n2C)C(=O)NC(C)c1ccc(Cl)cc1Cl (centres unmarked) | -29% |
| Cc1ccc(N(CC(=O)NC2CCC(C)CC2)S(=O)(=O)c2cccnc2)cc1 (centres unmarked) | -9.73% |
| Cc1onc(-c2ccccc2)c1C(=O)NCC1COc2ccccc2O1 (centres unmarked) | -7.91% |
| CCOC(=O)C(C)(C)N(Cc1ccc(Cl)cc1)S(=O)(=O)c1ccc(Cl)c([N+](=O)[O-])c1 | -2.82% |
| COc1ccccc1CNC(=O)N1CCN(c2ccccc2)CC1 | -16.9% |
| Cc1ccc(C(=O)CSc2nnc(-c3snnc3C)n2C2CC2)cc1 | 2.82% |
| NC(=O)c1ccsc1NC(=O)COC(=O)CCOc1ccccc1 | -4.76% |
| COC(CN(C)C(=O)C1CCCN(S(=O)(=O)c2ccc3c(c2)oc(=O)n3C)C1)OC (centres unmarked) | 18.4% |
| CCOc1ccc(C2C(C(=O)c3ccc(C)o3)=C(O)C(=O)N2CCCN(CC)CC)cc1 (centres unmarked) | 14.8% |
| CC1CCN(CCC(=O)Nc2ccc3c(c2)OCCO3)CC1.O=C(O)C(=O)O | 30.3% |
| Cc1cccn2c(=O)c3cc(C(=O)NCC4CCCO4)c(=N)n(Cc4cccnc4)c3nc12 (centres unmarked) | -95.1% |
| CCOC(=O)CSc1nnc(NCC(=O)OC(C)C)c(=O)[nH]1 | 17.9% |
| COc1cccc(-c2cc(C(F)(F)F)n3nc(C(=O)Nc4c(C)n(C)n(-c5ccccc5)c4=O)cc3n2)c1 | -10.1% |
| Cc1ccc(C(C)(C)C)cc1S(=O)(=O)Nc1nc2ccccc2nc1Cl | -33.6% |
| CC(Sc1ncn[nH]1)C(=O)Nc1cc(C(F)(F)F)ccc1Cl (centres unmarked) | -3.46% |
| O=C(Nc1ccc(Cl)cn1)C1CCCN1S(=O)(=O)c1ccccc1 (centres unmarked) | -14.9% |
| Cc1cccc(/C(N)=N/OC(=O)Cc2cccs2)c1 | -12.4% |
| Cc1ccccc1OCCSc1nc2ccccc2n1CCC(=O)O | 18.1% |
| Cc1ccc2c(C)c(C(=O)N(Cc3ccc(N(C)C)cc3)C3CCS(=O)(=O)C3)oc2c1 (centres unmarked) | -12.9% |
| CC(=O)N1CCC(N2CCCC(C(=O)c3cccc(Cl)c3)C2)CC1 (centres unmarked) | 5.55% |
| COc1ccc(C2=CC3=C(Br)C(=O)C(C)(OC(=O)C4CCCC4)C(=O)C3=CO2)cc1 (centres unmarked) | -20.9% |

| SMILES | hERG current change (%, negative = inhibition) at 10uM |
| --- | --- |
| CCc1cc(C(=O)O)c(NC(=O)/C=C/c2ccc(OC)c(OC)c2)s1 | 45% |
| CCCN(CC(=O)Nc1ccc(C(N)=O)cc1)CC(=O)Nc1ccccc1C | 7.89% |
| CCc1ccccc1N1CC(C(=O)Nc2cc(C)on2)CC1=O (centres unmarked) | -2.78% |
| C=CCNC(=S)NN(c1ccccc1)c1ccccc1 | 1.16% |
| Cc1ccc(S(=O)(=O)N/N=C/C(C)(C)CO)cc1 | 7.63% |
| O=C(Nc1nc(=O)c2ccccc2s1)c1ccccc1 | 8.23% |
| O=C(Nc1ccccc1C(=O)NCc1cccnc1)c1ccco1 | -2.35% |
| CCN1C(=O)[C@H]2[C@@H](c3ccc(C)cc3)N3C(=O)N(c4cccc(Cl)c4)C(=O)[C@@]3(Cc3ccccc3)[C@H]2C1=O | 8.14% |
| O=Cc1c(-c2ccc(F)cc2)nc2ccccn12 | 4.88% |
| Cc1cc(C(=O)CSc2nnc(-c3cccnc3)n2-c2ccccc2F)c(C)n1C | -24.5% |
| CC(=O)N[C@@H]1[C@@H](O)[C@@H]2OC(c3ccccc3)OC[C@H]2O[C@@H]1N=[N+]=[N-] (some centres unmarked) | 13.2% |
| COc1ccc2nc(NC(=O)CSc3ccccc3)sc2c1 | -4.55% |
| CCOc1ccc(Br)cc1S(=O)(=O)Nc1cccc(S(=O)(=O)N(C)c2ccccc2)c1 | 8.61% |
| Cc1sc(N)c(C(=O)c2ccccc2Cl)c1C | 3.8% |
| Cc1ccc(Cc2nc(-c3cccc(C)c3)no2)cc1 | 11.5% |
| COc1cc(NC(=O)CSc2nnc3c(n2)[nH]c2ccc(S(=O)(=O)NC(C)C)cc23)cc(OC)c1OC | 11.6% |
| COc1cc2c(cc1OC)CN(C(=O)c1cccs1)CC2 | -1.52% |
| CCOc1ccc(C(=O)NC2CCN(C(=S)NCc3ccco3)CC2)cc1 | -43.6% |
| Cc1ccc(-c2csc(=S)n2CC(=O)OCC(=O)NCc2ccco2)cc1 | -30.5% |
| C=CCn1c(SCc2n[nH]c(=S)n2-c2ccccc2)nnc1-c1ccccc1 | 14% |
| CC(C)CCN1CCN(Cc2ccsc2)CC1CCO (centres unmarked) | -6.33% |
| O=C(NC1CC1)c1c[nH]c2ccc(S(=O)(=O)Nc3cccc(C(F)(F)F)c3)cc2c1=O | 1.18% |

| SMILES | hERG current change (%, negative = inhibition) at 10uM |
| --- | --- |
| CCc1ccc(NC(=S)NCc2cccnc2)cc1 | 8.92% |
| O=C(NN1CCOCC1)c1ccc(Cl)cc1 | -26.1% |
| O=C(NCc1ccncc1)C1CCC(=O)N(CCc2ccc(Cl)cc2)C1 (centres unmarked) | -65.5% |
| Cc1ccc2nc3c(nc2c1)-c1ccccc1C3=O | 7.24% |
| O=C(CCC(F)(F)F)N1CCCC(CO)(CCc2ccccc2)C1 (centres unmarked) | -13.5% |
| COc1cc(/C=N/O)ccc1OCc1ccccc1Cl | 2.43% |
| CCN(c1ccccc1)S(=O)(=O)c1cc([N+](=O)[O-])ccc1N | -10.3% |
| CC(=O)Nc1cc(S(=O)(=O)Nc2ccccc2)c(C)cc1C | -4.25% |
| CCOC(=O)c1[nH]c2ccccc2c1NC(C)=O | -3.18% |
| COc1ccc(C(=O)C[n+]2cccc3cc(C)ccc32)cc1.[Br-] | 15.3% |
| Cc1c(C(=O)NCCCc2ccccc2)cccc1[N+](=O)[O-] | -4.32% |
| CN(C)c1nc(-c2ccccc2)cc(C(F)(F)F)c1C#N | 19.6% |
| COc1cc2ccccc2cc1C(=O)Nc1nc(C)c(C(C)=O)s1 | 19.4% |
| COCC(=O)Nc1cc(C)cn(Cc2cccc(C(F)(F)F)c2)c1=O | -3.85% |
| COc1ccc(N=C2S/C(=C\c3ccc(N4CCOCC4)o3)C(=O)N2CCc2c[nH]c3ccccc23)cc1 | 17.3% |
| O=C(O)c1ccccc1C(=O)OCCCc1ccncc1 | 18.3% |
| C=CCn1cc(-c2cccc(C(F)(F)F)c2)cc(C#N)c1=O | -4.14% |
| CCc1ccc(NC(=O)C(C)Oc2nnc(-c3cccs3)c(-c3cccs3)n2)cc1 (centres unmarked) | -9.79% |
| COCCn1c(SC2CCOC2=O)nc2ccccc2c1=O (centres unmarked) | -31% |
| Cc1nnc2ccc(-c3cccc(NS(=O)(=O)c4ccccc4[N+](=O)[O-])c3)nn12 | -13.7% |
| CNC(=O)C1Cc2ccccc2CN1S(=O)(=O)c1ccc(OC)c(OC)c1 (centres unmarked) | 1.68% |
| Cc1cc2nc(-c3ccc[nH]c3=O)n(Cc3cccc(F)c3)c2cc1C | 10.8% |

| SMILES | hERG current change (%, negative = inhibition) at 10uM |
| --- | --- |
| O=C1CN(C(=O)CNCc2ccc(Cl)cc2)c2ccccc2N1 | -15.4% |
| Cc1cc(N=Nc2ccc(C)c(N=Nc3cc(C)c(N)cc3N)c2)c(N)cc1N | 17.7% |
| Cc1cccc(-n2c(C)cc(/C=N\NC(=O)c3ccco3)c2C)c1 | -12.8% |
| CCN(CC)c1ccc(/C=N/N(c2ccccc2)c2ccccc2)c(O)c1 | 13.3% |
| Cc1ccc(C)c(S(=O)(=O)Nc2ccc(C(=O)NCC(c3ccco3)N3CCCCC3)cc2)c1 (centres unmarked) | -42.6% |
| Cc1ccc2c(c1)c1c(n2CC(O)CN2CCC(C)CC2)CCCC1 (centres unmarked) | -58.1% |
| CCOc1ccc(C(=O)CCC(=O)Nc2cc(C)ccn2)cc1 | 11.8% |
| CCN1CC(=O)Nc2cc(S(=O)(=O)N3CCOCC3)ccc21 | 4.89% |
| O=C(CN1C(=O)NC2(CCCCC2)C1=O)Nc1ccc2c(c1)OCCCO2 | -2.21% |
| CCSc1nnc(NC(=O)Cn2cnc3ccccc3c2=O)s1 | 8.7% |
| CCN(CC)S(=O)(=O)c1cc(C(=O)N(C)CC(=O)Nc2ccc(Cl)cc2)ccc1Cl | -22.6% |
| O=C(c1cccc(S(=O)(=O)NCCOc2ccccc2)c1)N1CCN(c2ncccn2)CC1 | -37.6% |
| O=C(CSc1nc(=O)[nH]c2c1CCCC2)Nc1cc(C(F)(F)F)cc(C(F)(F)F)c1 | 13.3% |
| CCOC(=O)c1sc(NC(=O)Nc2ccccc2)cc1C | 0.859% |
| CC1(C)COC(/C=C/c2cccc([N+](=O)[O-])c2)=N1 | -12.4% |
| Cl.O=C(c1ccco1)N1CCN(C(c2ccccc2)c2nnnn2C2CCCC2)CC1 (centres unmarked) | -36.8% |
| Cc1[nH][nH]c(=O)c1N=Nc1ccccc1Cl | 25.7% |
| Cc1ccc(N(CC(=O)NC2CCCC2)C(=O)CNC(=O)c2cccs2)cc1C | 8.83% |
| O=[N+]([O-])c1ccccc1S(=O)(=O)Nc1cccc(-c2ccc(N3CCCC3)nn2)c1 | -0.232% |
| Cc1ccc(NC(=O)c2ccc(NCc3ccco3)c([N+](=O)[O-])c2)cc1Cl | 10.5% |
